Assay results taken from PubChem BioAssay AID624296 (National Center for Advancing Translational Sciences (NCATS), 2012).
Out of some 350,000 compounds screened, about 9,900 (2.8%) were called active. The shares of active, inactive and inconclusive entries below differ from those in the screen. The call rests on the fitted dose curve; in most records, active means well fitted activation curve with a large enough effect; inconclusive means small, poorly fitted or top-dose-only effect; inactive means no such curve, though single readings can be large or run the other way. No potency is given beside an inconclusive call; the fits are too rough.

Experiment: A quantitative high throughput screen for small molecules that induce DNA re-replication in MCF 10a normal breast cells. Further: nearly all actives have a fitted effect of over 50% in size. On activity, positive = re-replication: % of control where 0% means no effect.
Conditions: MCF 10A DNA re-replication, Hoechst nuclear intensity, 48 h; activity, positive = re-replication: at 46.1 µM (top of the series)
Potency means the concentration at half of the fitted maximal effect; tags describe the fitted curve by direction and shape.

Question: For N/C(=N\OC(=O)c1ccc2c(c1)OCO2)c1ccc(Cl)cc1, which Potency is on record?
Answer: Its Potency is active: 16.4 µM.

Question: Which “activity, positive = re-replication” value does the source give for COC(=O)c1ccc(NC(=O)c2nc(S(=O)(=O)Cc3cccc(C)c3)ncc2Cl)cc1 here?
Answer: The value was inactive: 10.6%.

Question: Which Potency does the source give for CC1(C)OC(=O)C(=Cc2ccc(-c3ccc(S(N)(=O)=O)cc3)o2)C(=O)O1 here?
Answer: The Potency was active: 18.4 µM.

Question: With CCCCC1(C)NC(=O)c2c(C)sc(C(=O)OCC)c2N1 (configuration not stated) as the compound, how does the Potency read?
Answer: The Potency was inconclusive [activator, partial curve, poor fit].

Question: For NC(=O)Cn1c(=O)n(-c2ccccc2)c(=O)c2oc3ccccc3c21, which “activity, positive = re-replication” value is on record?
Answer: The value was inactive: -0.219%.

Question: For Cc1cccc(C)c1-n1c(C)cc(/C=C2\NC(=O)NC2=O)c1C, which Potency is on record?
Answer: Its Potency is inconclusive [activator, single point].

Question: With NC1=NC(c2ccccc2)CC(=O)N1 (configuration not stated) as the compound, how does the “activity, positive = re-replication” value read?
Answer: Its value is inactive: -5.51%.

Question: For Cc1c(NC(=S)N/N=C/c2cc([N+](=O)[O-])ccc2O)c(=O)n(-c2ccccc2)n1C, which “activity, positive = re-replication” value is on record?
Answer: The value was inactive: 1.17%.

Question: Which Potency does the source give for O=C1/C(=C\c2ccc3ccccc3c2)CCCc2ccccc21 here?
Answer: Its Potency is active: 5.8 µM.

Question: With CCCCN(CC)CCCNC(=O)CC1Oc2ccccc2NC1=O (configuration not stated) as the compound, how does the “activity, positive = re-replication” value read?
Answer: The value was inactive: 1.75%.

Question: With CC1=CCC2CC1C2(C)C (configuration not stated) as the compound, how does the “activity, positive = re-replication” value read?
Answer: The value was inactive: 3.59%.

Question: Which “activity, positive = re-replication” value does the source give for CCCCn1c(N)c(N(CC(C)C)C(=O)C2=COCCO2)c(=O)[nH]c1=O here?
Answer: The value was inactive: -7.79%.

Question: Which “activity, positive = re-replication” value does the source give for CCc1ccc2[nH]c3nc(SCC(=O)NCC4CCCO4)nnc3c2c1 (configuration not stated) here?
Answer: Its value is inactive: 9.47%.

Question: Which Potency does the source give for COC(=O)/C=C1/SC(=Nc2ccc(C)cc2C)NC1=O here?
Answer: Its Potency is inconclusive [activator, single point].

Question: For Cc1ccc(NC(=O)C2CCCN(S(=O)(=O)c3cnc[nH]3)C2)cc1C (configuration not stated), which Potency is on record?
Answer: Its Potency is inconclusive [activator, single point].

Question: Which Potency does the source give for CC(C)(C)C(=O)/C(=C/c1ccc(Cl)cc1)n1cncn1 here?
Answer: The Potency was active: 6.51 µM.

Question: Which Potency does the source give for CCOCCOC(=O)c1[nH]c2c(c1C)C(=O)CC(c1ccc(N(C)C)cc1)C2 (configuration not stated) here?
Answer: Its Potency is inconclusive [activator, single point].

Question: Which Potency does the source give for COc1cccc(/C=C2\Sc3ccc(C(=O)NCc4cccnc4)cc3N(C)C2=O)c1 here?
Answer: Its Potency is inconclusive [activator, single point].

Question: For CC(=O)c1ccc(N2CCN(C(=O)c3ccc4c(c3)OCO4)CC2)cc1, which “activity, positive = re-replication” value is on record?
Answer: The value was inactive: 5.36%.

Question: For Cc1cc(Cl)ccc1OCC(=O)NC(=S)Nc1ccccc1N1CCOCC1, which Potency is on record?
Answer: Its Potency is inconclusive [activator, partial curve].

Question: With Cc1nn(C)c(C)c1/C=C(/C(=O)C(C)(C)C)n1cncn1 as the compound, how does the Potency read?
Answer: Its Potency is inconclusive [activator, single point].

Question: For CC(C)(C)c1ccc(-c2n[nH]c(=S)n2/N=C/c2ccncc2)cc1, which Potency is on record?
Answer: Its Potency is inconclusive [activator, partial curve, poor fit].
